# About 860 (0.43%) of roughly 200,000 compounds were called active. The shares of active, inactive and inconclusive entries below differ from those in the screen. Calls come from the whole dose curve; as a rule, active = well fitted inhibition curve with a large enough effect; inconclusive = small, poorly fitted or top-dose-only effect; inactive = flat fitted curve, though single readings scatter. Where the call is inconclusive, the potency comes from a doubtful curve fit.
# Molecular target: Cruzipain (Trypanosoma cruzi) (UniProt P25779)
# Experiment: qHTS Assay for Promiscuous and Specific Inhibitors of Cruzain (with detergent); note: nearly all actives have a fitted effect of over 40% in size;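 for max response, negative = inhibition: plate controls were neutral wells for no effect and buffer without enzyme for full effect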
# Conditions: purified cruzain, Z-FR-AMC fluorescence, 0.01% Triton
# Outline: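 Cruzain (1.5 nM) preincubated 15 min at RT with compound in 100 mM sodium acetate pH 5.5, 5 mM DTT, 0.01% Triton X-100. Reaction started with 2 uM Z-FR-AMC; AMC fluorescence (ex 360/em 450 nm) change over 60 s gave rate.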
# Potency is the fitted concentration of half-maximal effect; tags give direction and shape of the fitted curve.
# Sequence of UniProt P25779 (P25779 whole entry, looked up): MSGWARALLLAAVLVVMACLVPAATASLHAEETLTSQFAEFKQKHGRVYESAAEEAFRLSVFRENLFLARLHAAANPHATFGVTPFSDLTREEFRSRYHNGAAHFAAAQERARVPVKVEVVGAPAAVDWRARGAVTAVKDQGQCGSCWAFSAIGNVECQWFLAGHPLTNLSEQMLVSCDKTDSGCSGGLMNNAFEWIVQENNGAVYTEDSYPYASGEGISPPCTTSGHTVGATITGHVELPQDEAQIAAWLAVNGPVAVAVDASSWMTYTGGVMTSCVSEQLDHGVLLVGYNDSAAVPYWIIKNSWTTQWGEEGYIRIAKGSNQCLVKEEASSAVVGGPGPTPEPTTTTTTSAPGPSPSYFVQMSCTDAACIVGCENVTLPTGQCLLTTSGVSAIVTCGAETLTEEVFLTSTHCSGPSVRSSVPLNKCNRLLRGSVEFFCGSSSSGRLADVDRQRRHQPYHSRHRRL
Compound,Potency,"max response, negative = inhibition"
COc1ccc(Nc2c3c(nc4ccc(NC(=O)c5cc(Cl)ccc5OC)cc24)CCCC3)cc1OC,"inconclusive: 35.5 µM [inhibitor, single point]",–
CC(C)(C)C1C/C(=C/c2ccco2)C(=O)/C(=C/c2ccco2)C1 (stereo not given),"inconclusive: 28.2 µM [inhibitor, single point]",–
Cn1c(=O)n(C)c2cc(/C=N/NC(=O)c3cccc(Br)c3)ccc21,"inconclusive: 31.6 µM [inhibitor, single point]",–
CC(C)C[C@H](NC(=O)[C@@H]1O[C@H]1C(=O)O)C(=O)NCCCCN=C(N)N,active: 0.0562 µM,–
COc1cccc(-c2noc(COc3ccccc3Cl)n2)c1,–,inactive: -5.22%
c1ccc(-c2nc3nc4ccccc4nc3n2Cc2ccco2)cc1,"inconclusive: 25.1 µM [inhibitor, single point]",–
CCC(C)n1c(-c2cccs2)nc2nc3ccccc3nc21 (stereo not given),"inconclusive: 31.6 µM [inhibitor, single point]",–
CCOc1cc(/C=N/NC(N)=S)cc(Br)c1OCc1ccccc1C,active: 3.16 µM,–
O=C1C(Cl)=C(NCCN2CCOCC2)C(=O)c2ncccc21,"inconclusive: 28.2 µM [inhibitor, single point]",–
Cc1ccc(C)c(OCCn2c(CCNC(=O)C3CCCCC3)nc3ccccc32)c1,active: 1.26 µM,–
COc1ccc(-c2cc(-c3ccccc3)c(C#N)c(S(C)(=O)=O)n2)cc1,"inconclusive: 10 µM [inhibitor, partial curve]",–
Cc1cc(=O)oc2c(CN3CCC(C)CC3)c(O)c(Cl)cc12,"inconclusive: 7.08 µM [inhibitor, single point]",–
O=C(CSc1ccc2c(c1)OCCO2)NCc1ccco1,"inconclusive: 25.1 µM [inhibitor, partial curve]",–
CCOc1ccc(S(=O)(=O)Nc2ccccc2C(=O)NCc2ccco2)cc1,–,inactive: -11.6%
O=C(NCCc1nc2ccccc2n1CCCOc1ccc(Cl)cc1)C1CCCCC1,active: 2 µM,–
CC(=O)N1CCc2cc3nc(C)cc(C)c3cc21,"inconclusive: 31.6 µM [inhibitor, single point]",–
CC(C)CN1CC[C@@]2(CCCN(C(=O)c3csnn3)C2)C1,"inconclusive: 28.2 µM [inhibitor, single point]",–
Cc1ccc2cc(C=C(C#N)C#N)c(Cl)nc2c1,"inconclusive: 22.4 µM [inhibitor, single point]",–
Cc1cccn2c(=O)c3cc(C(=O)NCc4ccccc4)c(=N)n(CCOCCO)c3nc12,"inconclusive: 39.8 µM [inhibitor, single point]",–
O=C(NCCc1ccccc1)C(=O)N/N=C/c1ccc2c(c1)OCO2,–,inactive: 5.2%
CCSc1nnc(NC(=O)CSc2nc3c(c(=O)n2-c2ccccc2OC)SCC3)s1,active: 28.2 µM,–
Cc1onc(-c2ccccc2Cl)c1C(=O)Nc1ccc(-c2cn3cccnc3n2)cc1,"inconclusive: 25.1 µM [inhibitor, single point]",–
COc1ccc(NC(=O)CSc2nc3c(oc4ccccc43)c(=O)n2-c2ccc(C)c(C)c2)cc1,–,inactive: -1.17%

Compound,Potency,"max response, negative = inhibition"
O=C(OCc1ccccc1)/C(=C/c1ccc(Cl)cc1)NC(=O)c1ccccc1Cl,"inconclusive: 2.82 µM [inhibitor, full curve, poor fit]",–
CC1CN(c2oc(-c3cccs3)nc2C#N)CC(C)O1 (stereo not given),active: 28.2 µM,–
O=C(NCc1ccccn1)c1ccc2nc(-c3ccco3)c(-c3ccco3)nc2c1,active: 22.4 µM,–
N#Cc1nc(N2CCCC2)nc(N2CCCC2)n1,active: 7.94 µM,–
c1ccc2[nH]c(CSc3ncnc4c3oc3ccccc34)nc2c1,"inconclusive: 10 µM [inhibitor, partial curve]",–
Cc1cc(=O)[nH]c(SCC(=O)/C=C2\N(C)c3ccccc3C2(C)C)n1,"inconclusive: 22.4 µM [inhibitor, single point]",–
COc1cc(Cl)c(C)cc1NC(=O)CSc1ncc(S(=O)(=O)c2ccc(C(C)(C)C)cc2)c(=O)[nH]1,active: 28.2 µM,–
Cc1cc2cc(C=C(C#N)C#N)c(Cl)nc2cc1C,"inconclusive: 20 µM [inhibitor, partial curve]",–
CCC1=Nc2cc(C(=O)NC3CCCC3)ccc2Sc2ccc(Br)cc21,–,inactive: -4.33%
CC(C)C(NS(=O)(=O)c1cccs1)C(=O)NCCN1CCN(c2ccccc2)CC1 (stereo not given),active: 20 µM,–
C/C(=N\NC(N)=S)C1(C)CCCCC1,"inconclusive: 31.6 µM [inhibitor, single point]",–
Cc1onc(-c2c(Cl)cccc2Cl)c1C(=O)Nc1ccc2c(c1)OCCO2,"inconclusive: 20 µM [inhibitor, partial curve]",–
O=C(NCCc1nc2ccccc2[nH]1)c1ccc(F)cc1,"inconclusive: 6.31 µM [inhibitor, single point]",–
C[C@H]1CCCC(=O)CCCCCc2cc(O)cc(O)c2C(=O)O1,"inconclusive: 28.2 µM [inhibitor, partial curve]",–
CCCCN(CCCNC(=O)CN1N=C(c2ccc(C)cc2)CCC1=O)c1ccccc1,–,inactive: -1.23%
Cc1ccc(C(=O)c2no[n+]([O-])c2C(=O)c2ccc(C)cc2)cc1,"inconclusive: 6.31 µM [inhibitor, partial curve]",–
CC1CCC(C(C)C)C(OC(=O)C2=C3c4ccccc4S(=O)(=O)N3CC2)C1 (stereo not given),"inconclusive: 35.5 µM [inhibitor, single point]",–
CCc1c(C)c2cc(Cl)c(O)c(CN(CC)CC)c2oc1=O,"inconclusive: 12.6 µM [inhibitor, single point]",–
Fc1ccc2[nH]c(-c3cccs3)cc2c1,–,inactive: -12.2%
COc1ccc(COC(=O)NNC(=O)c2ccccc2Cl)cc1,"inconclusive: 17.8 µM [inhibitor, single point]",–
CC(OC(=O)c1cccc(N2C(=O)c3ccccc3C2=O)c1)C(=O)Nc1ccc(N(C)C)cc1 (stereo not given),"inconclusive: 28.2 µM [inhibitor, single point]",–
O=C(Nc1sccc1C(=O)NCc1ccco1)c1cccnc1,"inconclusive: 22.4 µM [inhibitor, single point]",–

# Source: PubChem BioAssay AID1478 (National Center for Advancing Translational Sciences (NCATS), 2009)
